Results from the supplement of paper PMC12217912.
The other results are listed elsewhere or left out. The full chains were built here from the parent and the listed change. Values near 0.05 are background.

B1: TEV protease; numbered along this chain (parent)
chain: MGESLFKGPRDYNPISSSICHLTNESDGHTTSLYGIGFGPFIITNKHLFRRNNGTLVVQSLHGVFKVKDTTTLQQHLVDGRDMIIIRMPKDFPPFPQKLKFREPQREERICLVTTNFQTKSMSSMVSDTSCTFPSGDGIFWKHWIQTKDGQCGSPLVSTRDGFIVGIHSASNFTNTNNYFTSVPKNFMELLTNQEAQQWVSGWRLNADSVLWGGHKVFMVKPEEPFQPVKEATQL

Variants of: B1
Assay: raw area under fraction-flipped curve 0-4 h after induction (AUC4h, not background-subtracted), DNA-recorder readout of cleavage of the substrate (dimensionless); higher = more cleavage of the substrate by the protease variant
Conditions: temperature: 34 °C; time window: 0-4 h after rhamnose induction
Description: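 In vivo DNA recorder in E. coli TOP10(DE3) ΔrhaA at 34 °C. Each TEVp single-site mutant (parent TEVp 0) is paired with a single-site variant of the 7-mer TEVs (canonical ENLYFQ|S). The substrate sits between flexible linkers in a Bxb1-sfGFP-TEVs-SsrA fusion, so cleavage stabilises Bxb1 and speeds flipping of a recombination array, read by NGS. The value is the raw area under the fraction-flipped curve over 0-4 h after rhamnose induction (AUC4h), with ≥20 reads per time point. It is not background-subtracted; inactive controls average about 0.047.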
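Also: Bxb1 expression induced with 0.2% (w/v) L-rhamnose at OD600 near 0.5, cultures sampled hourly, flipped fraction per protease–substrate barcode pair counted by paired-end Illumina sequencing.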

Variant | area with substrate ENLYFQC | area with substrate ENLYFQE | area with substrate ENLYFQG | area with substrate ENLYFQL | area with substrate ENLYFQP | area with substrate ENLYFQS | area with substrate ENLYFQT | area with substrate ENLYFQW | area with substrate ENLYFQY | area with substrate ENLYFQF
MGESLFKGPRDYNPISSSICHLTNESDGHTTSLYGIGFGPFIITNKHLFRRNNGTLVVQSLHGVFKVKDTTTLQQHLVEGRDMIIIRMPKDFPPFPQKLKFREPQREERICLVTTNFQTKSMSSMVSDTSCTFPSGDGIFWKHWIQTKDGQCGSPLVSTRDGFIVGIHSASNFTNTNNYFTSVPKNFMELLTNQEAQQWVSGWRLNADSVLWGGHKVFMVKPEEPFQPVKEATQL [D79E] | 0.07 | 0.0693 | 0.0991 | 0.084 | 0.0598 | 0.102 | 0.0705 | 0.0449 | 0.114 | 
MGESLFKGPRDYNPISSSICHLTNESDGHTTSLYSIGFGPFIITNKHLFRRNNGTLVVQSLHGVFKVKDTTTLQQHLVDGRDMIIIRMPKDFPPFPQKLKFREPQREERICLVTTNFQTKSMSSMVSDTSCTFPSGDGIFWKHWIQTKDGQCGSPLVSTRDGFIVGIHSASNFTNTNNYFTSVPKNFMELLTNQEAQQWVSGWRLNADSVLWGGHKVFMVKPEEPFQPVKEATQL [G35S] | 0.0764 |  | 0.0679 |  |  | 0.0777 |  |  |  | 0.0651
MGESLFKGPRDYNPISSSICHLTNESDGHTTSLHGIGFGPFIITNKHLFRRNNGTLVVQSLHGVFKVKDTTTLQQHLVDGRDMIIIRMPKDFPPFPQKLKFREPQREERICLVTTNFQTKSMSSMVSDTSCTFPSGDGIFWKHWIQTKDGQCGSPLVSTRDGFIVGIHSASNFTNTNNYFTSVPKNFMELLTNQEAQQWVSGWRLNADSVLWGGHKVFMVKPEEPFQPVKEATQL [Y34H] | 0.121 |  | 0.0998 |  |  | 0.101 |  | 0.0642 |  | 
MGESLFKLPRDYNPISSSICHLTNESDGHTTSLYGIGFGPFIITNKHLFRRNNGTLVVQSLHGVFKVKDTTTLQQHLVDGRDMIIIRMPKDFPPFPQKLKFREPQREERICLVTTNFQTKSMSSMVSDTSCTFPSGDGIFWKHWIQTKDGQCGSPLVSTRDGFIVGIHSASNFTNTNNYFTSVPKNFMELLTNQEAQQWVSGWRLNADSVLWGGHKVFMVKPEEPFQPVKEATQL [G8L] | 0.132 |  |  | 0.059 |  | 0.103 |  |  | 0.0692 | 
MGESLFKGPRDYNPISSSICHLTNESDGHTTSLYGIGFGPFIITNKHLFRRNLGTLVVQSLHGVFKVKDTTTLQQHLVDGRDMIIIRMPKDFPPFPQKLKFREPQREERICLVTTNFQTKSMSSMVSDTSCTFPSGDGIFWKHWIQTKDGQCGSPLVSTRDGFIVGIHSASNFTNTNNYFTSVPKNFMELLTNQEAQQWVSGWRLNADSVLWGGHKVFMVKPEEPFQPVKEATQL [N53L] | 0.101 |  |  | 0.0509 |  | 0.0895 | 0.0516 | 0.0602 | 0.109 | 0.0793
MGESLFKGPRDYNPISSSICHLTNESDGHTTSLYGIGFGPFIITNKHLFRRNNGTLVVQSLHGVIKVKDTTTLQQHLVDGRDMIIIRMPKDFPPFPQKLKFREPQREERICLVTTNFQTKSMSSMVSDTSCTFPSGDGIFWKHWIQTKDGQCGSPLVSTRDGFIVGIHSASNFTNTNNYFTSVPKNFMELLTNQEAQQWVSGWRLNADSVLWGGHKVFMVKPEEPFQPVKEATQL [F65I] | 0.105 |  |  |  |  | 0.0825 | 0.0585 |  | 0.0731 | 

Same assay, conditions: temperature: 34 °C; time window: 0-4 h after rhamnose induction

Variant | area with substrate ENLYFQM | area with substrate ENLYFQR | area with substrate ENLYFQD | area with substrate ENLYFQI | area with substrate ENLYFQN | area with substrate ENLYFQH
MGESLFKGPRDYNPISSSICHLTNESDGHTTSLYSIGFGPFIITNKHLFRRNNGTLVVQSLHGVFKVKDTTTLQQHLVDGRDMIIIRMPKDFPPFPQKLKFREPQREERICLVTTNFQTKSMSSMVSDTSCTFPSGDGIFWKHWIQTKDGQCGSPLVSTRDGFIVGIHSASNFTNTNNYFTSVPKNFMELLTNQEAQQWVSGWRLNADSVLWGGHKVFMVKPEEPFQPVKEATQL [G35S] | 0.0775 | 0.0327 |  |  |  | 
MGESLFKGPRDYNPISSSICHLTNESDGHTTSLHGIGFGPFIITNKHLFRRNNGTLVVQSLHGVFKVKDTTTLQQHLVDGRDMIIIRMPKDFPPFPQKLKFREPQREERICLVTTNFQTKSMSSMVSDTSCTFPSGDGIFWKHWIQTKDGQCGSPLVSTRDGFIVGIHSASNFTNTNNYFTSVPKNFMELLTNQEAQQWVSGWRLNADSVLWGGHKVFMVKPEEPFQPVKEATQL [Y34H] |  |  | 0.0982 | 0.0526 |  | 
MGESLFKLPRDYNPISSSICHLTNESDGHTTSLYGIGFGPFIITNKHLFRRNNGTLVVQSLHGVFKVKDTTTLQQHLVDGRDMIIIRMPKDFPPFPQKLKFREPQREERICLVTTNFQTKSMSSMVSDTSCTFPSGDGIFWKHWIQTKDGQCGSPLVSTRDGFIVGIHSASNFTNTNNYFTSVPKNFMELLTNQEAQQWVSGWRLNADSVLWGGHKVFMVKPEEPFQPVKEATQL [G8L] | 0.103 |  |  |  |  | 
MGESLFKGPRDYNPISSSICHLTNESDGHTTSLYGIGFGPFIITNKHLFRRNLGTLVVQSLHGVFKVKDTTTLQQHLVDGRDMIIIRMPKDFPPFPQKLKFREPQREERICLVTTNFQTKSMSSMVSDTSCTFPSGDGIFWKHWIQTKDGQCGSPLVSTRDGFIVGIHSASNFTNTNNYFTSVPKNFMELLTNQEAQQWVSGWRLNADSVLWGGHKVFMVKPEEPFQPVKEATQL [N53L] |  | 0.0573 | 0.0945 |  | 0.0662 | 
MGESLFKGPRDYNPISSSICHLTNESDGHTTSLYGIGFGPFIITNKHLFRRNNGTLVVQSLHGVIKVKDTTTLQQHLVDGRDMIIIRMPKDFPPFPQKLKFREPQREERICLVTTNFQTKSMSSMVSDTSCTFPSGDGIFWKHWIQTKDGQCGSPLVSTRDGFIVGIHSASNFTNTNNYFTSVPKNFMELLTNQEAQQWVSGWRLNADSVLWGGHKVFMVKPEEPFQPVKEATQL [F65I] |  |  |  | 0.0648 | 0.0775 | 0.0734
